Assay results taken from the supplement of paper PMC9542798.

Key:
Assay in all cases: minimum inhibitory concentration
Chloramphenicol = compound: O=C(N[C@H](CO)[C@H](O)c1ccc([N+](=O)[O-])cc1)C(Cl)Cl [Chloramphenicol]
Procedure: (§1)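 Broth microdilution MIC per ISO 10932 on precoated VetMIC Lact-1 plates (tylosin, vancomycin and ampicillin plates prepared manually) against lactic acid bacteria and bifidobacteria isolates. Plates were read visually after 48 h anaerobic incubation (bifidobacteria 72 h; enterococci and staphylococci 24 h aerobic) at species-specific temperatures of 30 or 37 °C. Values prefixed with < or > are outside the tested dilution range.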

Kanamycin = compound: NC[C@H]1O[C@H](O[C@H]2[C@H](O)[C@@H](O[C@H]3O[C@H](CO)[C@@H](O)[C@H](N)[C@H]3O)[C@H](N)C[C@@H]2N)[C@H](O)[C@@H](O)[C@@H]1O [Kanamycin]
Procedure: as §1

Erythromycin = compound: CC[C@H]1OC(=O)[C@H](C)[C@@H](O[C@H]2C[C@@](C)(OC)[C@@H](O)[C@H](C)O2)[C@H](C)[C@@H](O[C@@H]2O[C@H](C)C[C@H](N(C)C)[C@H]2O)[C@](C)(O)C[C@@H](C)C(=O)[C@H](C)[C@@H](O)[C@]1(C)O [Erythromycin]
Procedure: as §1

Gentamicin = compound: CNC(C)C1CCC(N)C(OC2C(N)CC(N)C(OC3OCC(C)(O)C(NC)C3O)C2O)O1 [Gentamicin]
Procedure: as §1

Tetracycline = compound: CN(C)[C@@H]1C(O)=C(C(N)=O)C(=O)[C@@]2(O)C(O)=C3C(=O)c4c(O)cccc4[C@@](C)(O)[C@H]3C[C@@H]12 [Tetracycline]
Procedure: as §1

Neomycin = compound: NC[C@@H]1O[C@H](O[C@H]2[C@@H](O)[C@H](O[C@@H]3[C@@H](O)[C@H](N)C[C@H](N)[C@H]3O[C@H]3O[C@H](CN)[C@@H](O)[C@H](O)[C@H]3N)O[C@@H]2CO)[C@H](N)[C@@H](O)[C@@H]1O [Neomycin]
Procedure: as §1

Clindamycin = compound: CCC[C@@H]1C[C@@H](C(=O)N[C@@H]([C@H]2O[C@H](SC)[C@H](O)[C@@H](O)[C@H]2O)[C@H](C)Cl)N(C)C1 [Clindamycin]
Procedure: as §1

Streptomycin = compound: CN[C@@H]1[C@H](O[C@H]2[C@H](O[C@H]3[C@H](O)[C@@H](O)[C@H](N=C(N)N)[C@@H](O)[C@@H]3N=C(N)N)O[C@@H](C)[C@]2(O)C=O)O[C@@H](CO)[C@H](O)[C@H]1O [Streptomycin]
Procedure: as §1

Ampicillin = compound: CC1(C)S[C@@H]2[C@H](NC(=O)[C@H](N)c3ccccc3)C(=O)N2[C@H]1C(=O)O [Ampicillin]
Procedure: as §1

Vancomycin = compound: CN[C@H](CC(C)C)C(=O)N[C@H]1C(=O)N[C@@H](CC(N)=O)C(=O)N[C@H]2C(=O)N[C@H]3C(=O)N[C@H](C(=O)N[C@H](C(=O)O)c4cc(O)cc(O)c4-c4cc3ccc4O)[C@H](O)c3ccc(c(Cl)c3)Oc3cc2cc(c3O[C@@H]2O[C@H](CO)[C@@H](O)[C@H](O)[C@H]2O[C@H]2C[C@](C)(N)[C@H](O)[C@H](C)O2)Oc2ccc(cc2Cl)[C@H]1O [Vancomycin]
Procedure: as §1
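Further: isolates derived from commercial starter, protective, probiotic or feed-additive cultures, from fermented products, from human gut mucosa or feces, and from human milk or colostrum.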

Row | Test System | minimum inhibitory concentration (Chloramphenicol) [µg/mL] | minimum inhibitory concentration (Kanamycin) [µg/mL] | minimum inhibitory concentration (Erythromycin) [µg/mL] | minimum inhibitory concentration (Gentamicin) [µg/mL] | minimum inhibitory concentration (Tetracycline) [µg/mL] | minimum inhibitory concentration (Neomycin) [µg/mL] | minimum inhibitory concentration (Clindamycin) [µg/mL] | minimum inhibitory concentration (Streptomycin) [µg/mL] | minimum inhibitory concentration (Ampicillin) [µg/mL] | minimum inhibitory concentration (Vancomycin) [µg/mL]
1 | Bifidobacterium adolescentis IM794 (strain group: human intestinal mucosa or faeces) | 2 | 512 | 0.12 | 128 | 1 | 128 | 0.06 | 256 | 0.125 | 0.5
2 | Bifidobacterium animalis subsp. lactis IM1114 (strain group: probiotic strains) | 2 | 512 | 0.06 | 128 | 16 | 16 | < 0.03 | 32 | 0.25 | 1
3 | Bifidobacterium adolescentis IM776 (strain group: human intestinal mucosa or faeces) | 2 | 512 | 0.25 | 256 | 16 | 256 | 0.12 | 64 | 0.125 | 0.5
4 | Bifidobacterium animalis subsp. lactis IM1398 (strain group: probiotic strains) | 1 | 256 | 0.06 | 64 | 8 | 32 | < 0.03 | 64 | 0.25 | 0.5
5 | Lactococcus lactis subsp. cremoris IM1449 (strain group: starter cultures) | 2 | < 2 | 0.12 | < 0.5 | 0.25 | < 0.5 | 0.12 | 2 | 0.5 | < 0.25
6 | Streptococcus thermophilus IM1351 (strain group: non-starter strains) | 2 | 32 | 0.5 | 2 | 1 | 8 | 0.06 | 16 | 0.25 | < 0.25
7 | Lactobacillus gasseri IM918 (strain group: human milk or colostrum) | 4 | 128 | 0.12 | 4 | 2 | 32 | 8 | 8 | 0.5 | 1
8 | Bifidobacterium longum IM970 (strain group: human intestinal mucosa or faeces) | 0.5 | 256 | 0.06 | 32 | 0.5 | 64 | 0.06 | > 256 | < 0.032 | 1
9 | Streptococcus thermophilus IM1416 (strain group: starter cultures) | 2 | 64 | 0.12 | 4 | 0.5 | 8 | 0.25 | 16 | 1 | 1
10 | Lactococcus lactis IM1372 (strain group: starter cultures) | 4 | 4 | 0.25 | 1 | 0.25 | 8 | 0.5 | 8 | 0.5 | < 0.25
11 | Lactobacillus gasseri IM862 (strain group: human milk or colostrum) | 4 | 64 | 0.12 | 2 | 4 | 16 | 8 | 8 | 0.5 | 1
12 | Lacticaseibacillus rhamnosus IM1433 (strain group: starter cultures) | 4 | 16 | > 8 | 2 | 0.5 | 4 | > 16 | > 256 | 2 | > 128
13 | Lactobacillus gasseri IM872 (strain group: human milk or colostrum) | 4 | 64 | 0.12 | 4 | 2 | 32 | 4 | 4 | 0.5 | 2
14 | Bifidobacterium adolescentis IM804 (strain group: human intestinal mucosa or faeces) | 2 | 512 | 0.25 | 256 | 16 | 256 | 0.12 | 128 | 0.063 | 0.5
15 | Bifidobacterium adolescentis IM663 (strain group: human intestinal mucosa or faeces) | 2 | 512 | 0.25 | 64 | 2 | 128 | 4 | 64 | 0.25 | 0.5
